Measurements from PubChem BioAssay AID504841 (National Center for Advancing Translational Sciences (NCATS), 2011).
The whole screen tested about 1,100 compounds, of which about 160 (15%) were called active. The shares of active, inactive and inconclusive entries below differ from those in the screen. Calls come from the whole dose curve; as a rule, active = well fitted inhibition curve with a large enough effect; inconclusive = small, poorly fitted or top-dose-only effect; inactive = no such curve, though single readings can be large or run the other way. Potencies beside an inconclusive call are fits to weak or partial responses and may not hold up.

The compounds below were run against ATP-dependent DNA helicase Q1 (Homo sapiens) (UniProt P46063) (assay: Confirmation qHTS Assay for Inhibitors of RecQ-Like Dna Helicase 1 (RECQ1) - Round 2 Cherry Picks). Settings: recombinant RECQ1 DNA unwinding, red fluorescence; series mostly up to 119 µM.
How it was run: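 RECQ1T1 (50 nM) preincubated 15 min with compound, then 200 nM TAMRA/BHQ-2 forked duplex and 2 mM ATP added (final). Buffer pH 8.0 with 2.5 ug/ml poly(dI-dC); fluorescence increase read twice, 2 hours apart, at room temperature.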
Note: nearly all actives have a fitted effect of over 50% in size.
Potency is the fitted concentration of half-maximal effect; tags give direction and shape of the fitted curve.

UniProt P46063, sequence (P46063 whole entry, looked up): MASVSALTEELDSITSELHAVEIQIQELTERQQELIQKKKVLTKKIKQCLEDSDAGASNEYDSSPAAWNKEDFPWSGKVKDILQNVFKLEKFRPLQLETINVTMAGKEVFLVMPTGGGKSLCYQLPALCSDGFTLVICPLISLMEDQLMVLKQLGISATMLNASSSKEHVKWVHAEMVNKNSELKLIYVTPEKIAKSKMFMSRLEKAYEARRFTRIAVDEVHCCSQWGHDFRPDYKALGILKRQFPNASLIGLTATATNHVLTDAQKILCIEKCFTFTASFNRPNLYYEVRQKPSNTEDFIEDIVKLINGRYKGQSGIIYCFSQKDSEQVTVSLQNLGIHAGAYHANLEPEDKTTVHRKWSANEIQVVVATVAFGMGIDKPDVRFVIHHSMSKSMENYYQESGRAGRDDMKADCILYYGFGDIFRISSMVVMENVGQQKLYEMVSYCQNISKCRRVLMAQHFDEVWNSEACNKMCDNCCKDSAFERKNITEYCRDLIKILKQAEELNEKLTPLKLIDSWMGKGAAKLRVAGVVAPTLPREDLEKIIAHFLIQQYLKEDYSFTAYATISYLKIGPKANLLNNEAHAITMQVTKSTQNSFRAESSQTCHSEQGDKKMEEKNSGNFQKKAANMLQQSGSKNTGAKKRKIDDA

Row | SMILES | Potency
1 | CC1CCN(CCCn2c(=S)[nH]c3c(sc4ccc([N+](=O)[O-])cc43)c2=O)CC1 | inconclusive: 50.1 µM [inhibitor, partial curve, poor fit]
2 | O=c1nc2s/c(=C\c3ccco3)c(=O)n2nc1Cc1ccccc1 | inconclusive: 50.1 µM [inhibitor, partial curve, poor fit]
3 | CCCCCc1c2c(cc(O)c1C(=O)O)OC(=O)c1cc(C(=O)CCCC)c(OC)cc1O2 | inconclusive: 79.4 µM [inhibitor, partial curve, poor fit]
4 | O=C(/C=C/c1ccc2c(c1)OCO2)Nc1nc(-c2ccccc2)cs1 | inconclusive: 89.1 µM [inhibitor, partial curve, poor fit]
5 | O=c1cc(-c2ccc(O)cc2)oc2cc(O)c(C3OC(CO)C(O)C(O)C3O)c(O)c12 (stereo not given) | active: 50.1 µM
6 | Nc1c(C(=O)Nc2ccc(F)cc2)sc2nc(-c3ccco3)ccc12 | inactive
7 | COC(=O)C1=CC(C(=O)c2cccs2)=NN(c2ccc(OC)cc2)C1C(=O)OC (stereo not given) | active: 79.4 µM
8 | Cc1cc2cc(CNS(=O)(=O)c3ccccc3)ccc2n1C | inconclusive: 89.1 µM [inhibitor, partial curve]
9 | CCOc1cccc(=O)c2c(C)n(-c3ccc(C(=O)O)cc3)c(C)c12 | inconclusive: 44.7 µM [inhibitor, partial curve]
10 | COC(=O)COc1ccc(C2Nc3c(Cl)ccc(C(=O)O)c3C3C=CCC32)cc1 (stereo not given) | inconclusive: 50.1 µM [inhibitor, partial curve, poor fit]
11 | Cc1[nH][nH]c(=O)c1C(c1ccc(-c2ccc(Cl)c(Cl)c2)o1)c1c(C)[nH][nH]c1=O | inconclusive: 56.2 µM [inhibitor, partial curve]
12 | COc1ccccc1CNc1nc(-c2ccc(N(C)C)cc2)nc2ccccc12 | inactive
13 | O=C1/C(=C\c2ccc(O)c(O)c2)Oc2cc(O)ccc21 | active: 56.2 µM
14 | COc1cccc(=O)c2c(C)n(-c3ccc(C(=O)O)cc3)c(C)c12 | inconclusive: 25.1 µM [inhibitor, full curve]
15 | O=C(CSc1nc2ccccc2[nH]1)N1c2ccccc2Sc2ccccc21 | inconclusive: 50.1 µM [inhibitor, partial curve, poor fit]
16 | O=c1c(-c2ccc([N+](=O)[O-])cc2)coc2c(O)c(O)ccc12 | inconclusive: 2.82 µM [inhibitor, full curve]
17 | COc1ccc2c(c1)CC/C(=C\c1ccc(OC)c(Cn3nc(C)cc3C)c1)C2=O | inconclusive: 50.1 µM [inhibitor, partial curve]
18 | COCCCN(C(=O)c1cc2c(s1)CCC2)c1c(N)n(Cc2ccccc2)c(=O)[nH]c1=O | inconclusive: 56.2 µM [inhibitor, partial curve]
19 | Cc1ccc(C2C(C#N)=C(N)Oc3c2oc(CO)cc3=O)o1 (stereo not given) | inactive
20 | COc1ccc(NS(=O)(=O)c2ccc(O)c(NC(=O)c3cc4c(C)nn(-c5ccc(F)cc5)c4s3)c2)cc1 | inconclusive: 14.1 µM [inhibitor, partial curve]
21 | CCN1/C(=C/c2cc[n+](CCCS(=O)(=O)[O-])c3ccccc23)Sc2ccccc21 | active: 56.2 µM
22 | Cc1ccc(S(=O)(=O)Nc2csc(C)c2C(=O)O)cc1 | inconclusive: 79.4 µM [inhibitor, partial curve]
23 | O=C(Nc1nnc(C2CC2)s1)C1CC(=O)N(c2ccc3c(c2)OCCO3)C1 (stereo not given) | inconclusive: 50.1 µM [inhibitor, partial curve]
24 | CCc1sc(C(C2C(=O)CC(C)(C)CC2=O)C2C(=O)CC(C)(C)CC2=O)cc1[N+](=O)[O-] | inactive

Row | SMILES | Potency
25 | COc1cc(NC(=O)c2ccccc2)c(OC)cc1NC(=O)Cc1cccs1 | inconclusive: 56.2 µM [inhibitor, partial curve]
26 | COc1ccccc1NC(=O)C12CC3CC(C1)CC(c1ccc(C)cc1)(C3)C2 | inactive
27 | CSc1ccc(C2C(C#N)=C(N)Oc3c2ccc(=O)c2c(C)oc(C)c32)cc1 (stereo not given) | inconclusive: 56.2 µM [inhibitor, partial curve, poor fit]
28 | COc1ccc(N(CC(=O)N2c3ccccc3CC2C)S(=O)(=O)c2c(C)noc2C)cc1 (stereo not given) | inactive
29 | COC(=O)CCCC1=CC2=CC(=O)C(C)(OC(=O)c3cccs3)C(=O)C2=CN1Cc1ccco1 (stereo not given) | inactive
30 | Cc1n[nH]c(C)c1N1C(=O)c2cccc3c(N4CCCCCC4)ccc(c23)C1=O | active: 79.4 µM
31 | CCOC(=O)c1sc2ncnc(NCc3ccco3)c2c1C | inactive
32 | COc1ccc(Nc2ccccc2N)cc1 | active: 44.7 µM
33 | COc1ccc(N=C2NC(=O)/C(=C\C=C\c3ccco3)S2)cc1 | inconclusive: 44.7 µM [inhibitor, partial curve]
34 | Cc1ccc(NC(=O)N/C=C/c2ccco2)cc1 | inconclusive: 79.4 µM [inhibitor, single point]
35 | COC(=O)c1ccc(CC(=O)c2c(C)cc(O)cc2O)o1 | inconclusive: 63.1 µM [inhibitor, partial curve, poor fit]
36 | COc1cccc2c1NC(C(=O)O)C1CC=CC21 (stereo not given) | inconclusive: 39.8 µM [inhibitor, partial curve]
37 | Cc1ccc(S(=O)(=O)Cc2ccc(C(=O)O)o2)cc1 | inconclusive: 56.2 µM [inhibitor, partial curve, poor fit]
38 | CC(C)(C)c1ccc(-c2nnc(SCCC#N)n2C2CCCC2)cc1 | inactive
39 | COc1ccc(N2Cc3cccc(C(=O)NC(C)CCc4ccco4)c3C2=O)cc1 (stereo not given) | active: 10 µM
40 | Nc1ccc(Nc2ccccc2)c(S(=O)(=O)O)c1 | inconclusive: 56.2 µM [inhibitor, partial curve]
41 | O=C(Cc1cccs1)Nc1ccc(S(=O)(=O)N2CCCCC2)cc1 | inconclusive: 89.1 µM [inhibitor, partial curve]
42 | N#C/C(=C/c1cccn1-c1cccc(C(=O)O)c1)c1ccc(Cl)cc1 | active: 44.7 µM
43 | CC(C)Cc1nnc(NC(=O)Cc2cccs2)s1 | active: 56.2 µM
44 | CC(=O)Oc1ccc2c(=O)c(Oc3ccccc3)coc2c1OC(C)=O | active: 25.1 µM
45 | CCOC(=O)c1cc(-c2ccccc2)sc1NC(=O)CN1C(=O)NC(CC)(c2ccc(F)cc2)C1=O (stereo not given) | inactive
46 | O=C(O)c1ccc(NS(=O)(=O)c2ccc3c(c2)C2C=CCC2C(c2ccccc2F)N3)cc1 (stereo not given) | inactive
47 | Cc1cc(C(=O)CSc2nnc(-c3ccccc3)n2-c2ccccc2)c(C)n1-c1ncn[nH]1 | inconclusive: 50.1 µM [inhibitor, partial curve]
48 | O=C(CN1CCN(c2ccc(O)cc2)CC1)NC(=O)NCc1ccco1 | inactive

Row | SMILES | Potency
49 | CCn1c(SC(C)C(=O)O)nc2sc3c(c2c1=O)CCC3 (stereo not given) | inconclusive: 12.6 µM [inhibitor, full curve]
50 | O=C(O)Cn1cccc1C(=O)c1ccccc1 | inactive
51 | COCCCNC(=O)c1ccc2c3c(onc13)-c1ccccc1C2=O | active: 50.1 µM
52 | O=C(c1ccccc1)c1c2c(cc3sc4ccccc4[n+]13)-c1cccc3cccc-2c13 | active: 31.6 µM
53 | Cc1ccc(-n2nc(-c3ccco3)cc2C(=O)O)cc1 | inconclusive: 50.1 µM [inhibitor, partial curve]
54 | CNc1ccccc(C(=O)/C=C/c2ccccc2OC)c1=O | inconclusive: 56.2 µM [inhibitor, partial curve]
55 | COc1ccc2c(c1)c(=O)oc1cc(OCC(=O)N3CCc4ccccc4C3)ccc12 | inconclusive: 63.1 µM [inhibitor, partial curve, poor fit]
56 | S=C(NCc1ccco1)Nc1ccc(Oc2ccc(Cl)cc2)cc1 | inactive
57 | COCCOC(=O)c1c(NC(=O)CN2CCc3ccccc32)sc(C(N)=O)c1C | inactive
58 | Cc1nn(Cc2ccc(F)cc2)c(C)c1NC(=O)c1cc(-c2ccco2)on1 | inconclusive: 79.4 µM [inhibitor, partial curve]
59 | O=C(C1COc2ccccc2O1)N1CCc2ccccc21 (stereo not given) | active: 12.6 µM
60 | O=C(Cn1cnc2scc(-c3cccc([N+](=O)[O-])c3)c2c1=O)NCc1ccco1 | inconclusive: 20 µM [inhibitor, partial curve, poor fit]
61 | Cc1cccc(/C=C/C(=O)c2cc(Br)ccc(=O)c2O)c1 | inconclusive: 20 µM [inhibitor, partial curve, poor fit]
62 | O=c1[nH]c(Nc2ccc(F)cc2)cc2ccccc12 | inactive
63 | O=C1SC(SCc2ccccc2)=N/C1=C\c1ccco1 | inconclusive: 56.2 µM [inhibitor, partial curve]
64 | O=S(=O)(Nc1nc2ccccc2nc1Nc1cccc(S(=O)(=O)N2CCCCC2)c1)c1ccccc1 | inconclusive: 56.2 µM [inhibitor, partial curve, poor fit]
65 | Cc1cc(-c2csc(NC(=O)c3ccc(=O)n(C)n3)n2)c(C)n1CC1CCCO1 (stereo not given) | inactive
66 | O=C(O)c1ccc2c(c1)C(=O)N(c1cccc(C(=O)/C=C/c3ccccc3)c1)C2=O | inconclusive: 50.1 µM [inhibitor, partial curve]
67 | CN(C)c1ccc(-c2nc(NC3CCNCC3)c3ccccc3n2)cc1 | active: 20 µM
68 | CCC(C)Cn1c(O)cc2nn(-c3nc4ccccc4s3)c(=O)c-2c1C (stereo not given) | inactive
69 | O=C(/C=C/c1ccco1)N(c1ccccn1)c1ccccn1 | active: 44.7 µM
70 | O=C(COc1ccc([N+](=O)[O-])cc1)Nc1nnc(-c2cccnc2)s1 | inconclusive: 50.1 µM [inhibitor, partial curve, poor fit]
